Hit rate of the full screen: of about 150,000 compounds, about 540 (0.36%) showed an effect of 50% or more. Some of the results follow.
system: Plasmodium falciparum; experiment: Primary screen in NF54 nanoGlo assay, in single point, at 2uM, 72h; a lower Z score goes with more inhibition; assay type: functional, Erythrocyte; details: timepoint 72 hour

| SMILES | % Inhibition [%] | Z score |
| --- | --- | --- |
| CCS(=O)(=O)C1CN(C(=O)[C@H](C)n2ccc3ccccc3c2=O)C1 | -4 | 0.45 |
| Cc1ccc(N2CCCN(Cc3ccc(OC(F)(F)F)cc3)C2=O)c(NC(=O)Nc2ccccc2)c1 | -5 | 0.76 |
| CN(CC(=O)N1CCOCC1)c1ncncc1-c1nc(-c2ccsc2)no1 | -7 | 1.3 |
| CNC(=O)c1noc(Cn2ncc(N(C)Cc3ccccc3)cc2=O)n1 | 0 | -0.02 |
| O=C(C[C@@H]1CCN2C[C@@H]1/C=C/COc1ccc(N3CCNCC3)cc1CNCC2=O)NC1CCCCC1 | 28 | -3.19 |
| CC(CC(O)c1ccccc1)NC(=O)CCC(F)(F)F (centres undefined) | -4 | 0.53 |
| CCNC(=O)N[C@@H](C)c1cnc(N2CCCCCCC2)nc1C | 0 | 0.02 |
| CN(C)S(=O)(=O)N[C@@H](c1ccccc1)c1ccc2c(c1)CCCO2 | -2 | 0.3 |
| CN1CCN(C(=O)C2CN(C(=O)c3cccc(Cl)c3)CC2c2cccc(C(F)(F)F)c2)CC1 (centres undefined) | -12 | 1.37 |
| Cc1cnc(C(=O)Nc2ccccc2OC[C@H]2CCCO2)cn1 | -7 | 0.65 |
| CC1CN(C(=O)CCC(C)(C)C(=O)N2CC(C)OC(C)(C)C2)CC(C)(C)O1 (centres undefined) | -11 | 2.13 |
| CNc1cc(C)nc(N2CCC[C@@]3(CCC(=O)N(Cc4cccnc4)C3)C2)n1 | 0 | 0.06 |
| COC(=O)c1cc(CNc2ccncc2F)n(C)c1C | -3 | 0.33 |
| Cc1nc(N2CCN(CCCO)CC2)c2cc[nH]c2n1 | 14 | -2.18 |
| CS(=O)(=O)c1cccc2c1N(C(=O)C(F)F)CCC2 | -3 | 0.48 |
| CCS(=O)(=O)CC(=O)Nc1ccc(-c2cccc(F)c2)c(F)c1 | -3 | 0.53 |
| CCN(C[C@H]1CCCCO1)C(=O)COc1cccnc1 | -10 | 1.29 |
| CCO[C@H]1COC[C@@H]1NC(=O)N1Cc2cccnc2N2CCC[C@H]2C1 | -15 | 1.56 |
| COc1ccc(CCCN2CCOC(C3CCCO3)C2)cc1F (centres undefined) | -9 | 1.21 |
| CS(=O)(=O)NCc1cccc(Cl)c1 | 10 | -1.92 |
| CC(C)Oc1ccccc1CN1C[C@@H]2C(=O)N(CCCN3CCCC3=O)C(=O)[C@@H]2C1 | 5 | -0.59 |
| COCCN(CC(=O)N(C)C)c1nccc(C)n1 | -5 | 0.67 |
| CCc1cccc2c(C(CC(=O)NC(C)c3ccccc3)c3ccccc3C(F)(F)F)c[nH]c12 (centres undefined) | -2 | 0.33 |
| Cn1cnnc1COCC(=O)N1CC(C)(C)[C@@H]2CCC[C@@H]21 | 21 | -2.72 |
| C#CCN(Cc1ccco1)C(=O)c1c[nH]c(=O)c(Cl)c1 | -2 | 0.22 |
| CCc1ccc(-c2cc3c(=O)n(Cc4nc(-c5cccc(Cl)c5)oc4C)ccn3n2)cc1 | -2 | 0.28 |

| SMILES | % Inhibition [%] | Z score |
| --- | --- | --- |
| CC(=O)N1CCC(NC(=O)c2ccncc2)CC1 | -1 | 0.15 |
| Cc1cc2c(cc1S(=O)(=O)N1CCCC(C(=O)NCc3ccc(OC(C)C)cc3)C1)OC(C)C(=O)N2 (centres undefined) | -13 | 1.48 |
| C[C@H]1COC2(CCN(CC(=O)N(C)Cc3ccc(F)cc3)CC2)O1 | 0 | 0.07 |
| COc1ccc(C2CCCN2C(=O)CN2CCOCC2C)cc1OC (centres undefined) | 2 | -0.24 |
| COc1cccc(OC)c1C(=O)N[C@@H]1c2ccccc2C2(CCNCC2)[C@H]1OC | -10 | 2.07 |
| O=C(c1cccc(S(=O)(=O)N2CCCCC2)c1)N1CCc2sccc2C1 | 3 | -0.39 |
| C[C@@H](CN1CCOCC1)NC(=O)c1cccc2c1C(=O)OC2(C)C | 2 | -0.36 |
| CCc1noc(C(C)N2CC(C)C(N3CCCN(C(C)=O)CC3)C2)n1 (centres undefined) | -8 | 0.87 |
| COc1ccc(CCNC(=O)CCn2c(-c3ccccc3)cc(C(C)=O)c2C)cc1OC | 14 | -1.63 |
| Cc1nc(-c2ccc(C(=O)NCCN3CCCCC3)cc2)n(C)n1 | -18 | 1.85 |
| Cc1ccc(-n2cc(-c3ccccc3)nc2NC(=O)CN(Cc2ccccc2)C(=O)c2cccs2)cc1F | 0 | -0.09 |
| CNC(=O)N1CCN(S(=O)(=O)c2ccc3c(c2)CCCC3)CC1 | -13 | 1.21 |
| c1ccc(-n2cc(-c3nc(-c4cnccn4)cs3)cn2)cc1 | -7 | 1.27 |
| Cc1c(NCc2ncc([C@H](C)O)s2)cccc1N(C)C | -3 | 0.3 |
| C[C@@H](NC(=O)C[C@@H]1[C@H](O)CC[C@@H]2[C@](C)(CO)[C@H](O)CC[C@]21C)c1ccccc1 | 12 | -1.8 |
| c1cnc2nc(N3CCC[C@H](c4nc5c(s4)CCC5)C3)ccc2n1 | -7 | 1.37 |
| COc1ccc(-c2nnc(Cc3nc(-c4cccc(F)c4)no3)o2)cc1OC | -3 | 0.42 |
| Cc1ccc(-c2cn[nH]c2[C@H]2CCCN(C(=O)c3cnc(O)cn3)C2)cc1 | -17 | 2.25 |
| CC(C)Nc1nc(NC(C)C)nc(N(C)n2cnnc2)n1 | -4 | 0.56 |
| O=C1C[C@H](c2cccc(O)c2)c2c(n(C3CCCCC3)[nH]c2=O)N1 | -5 | 0.58 |
| CCc1nc(C(C)NCC2CCCN(S(C)(=O)=O)C2)cs1 (centres undefined) | 2 | -0.34 |
| COc1cccc([C@@H]2CC(=O)Nc3nc(N4CCC(C)CC4)nc(O)c32)c1 | 27 | -3.93 |
| COc1cc(-c2cccnc2)nc(N)n1 | -11 | 1.56 |
| CC[C@H]1CN2C=NC(N3CCN(C(=O)Nc4cc(F)cc(F)c4)CC3)=CC2=N1 | 68 | -4.25 |
| CC(C)OC(=O)[C@H](C)N(C)c1nccc(C(F)(F)F)n1 | 1 | -0.27 |
| O=C1N(CC2CCCCC2)CCC[C@@]1(O)CNC1CCCC1 | -23 | 2.01 |

From ChEMBL document CHEMBL4888484, “Replenishing the malaria drug discovery pipeline: Screening and hit evaluation of the MMV Hit Generation Library 1 (HGL1) against asexual blood stage Plasmodium falciparum ,using a nano luciferase reporter read-out” (2022)
